The DeepSol protein solubility set

Assay: soluble on expression in E. coli; label from the status in PepcDB or PDB records

In the case of “MSKVNKAPLSLSRLVRYMDGKDGKIAVIVGTVTDDVRIEDVPALTVTALRFTESARARIHKAGGECLTFDQLALPCPTWSENTVLLRGPKNTREAVKHFGPAPGVPHSHTKPYVRQTGKKIEIARGRRRSRGFKV”, the “soluble on expression in E. coli” value is reported as “soluble”.
